# PubChem BioAssay AID686978 (National Center for Advancing Translational Sciences (NCATS), 2013)
# The whole screen tested about 420,000 compounds, of which about 64,000 (15%) were called active. Inconclusive results, whose numbers are uncertain, are shown with a selection of clear calls. The call rests on the fitted dose curve; in most records, active means well fitted inhibition curve with a large enough effect; inconclusive means small, poorly fitted or top-dose-only effect; inactive means flat fitted curve, though single readings scatter. No potency is given beside an inconclusive call; the fits are too rough.
# Experiment: qHTS for Inhibitors of human tyrosyl-DNA phosphodiesterase 1 (TDP1): qHTS in cells in absence of CPT; further: nearly all actives have a fitted effect of over 55% in size
# Conditions: DT40 Tdp1-/- hTDP1 cells, no CPT, ATP luminescence, 48 h; activity change, negative = growth inhibition: at 46.2 µM (top of the series) unless noted
# In short: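 No-CPT arm: Tdp1-/-;hTDP1 DT40 cells (400/well) plus compounds, incubated ≥48 hr at 37 °C. Readout CellTiter-Glo luminescence.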
# On the % scale 0 is the no-effect control and ±100 the full control effect; potency means the concentration at half of the fitted maximal effect; tags describe the fitted curve by direction and shape.
Structure (SMILES),Potency,"activity change, negative = growth inhibition"
CC(=O)c1ccc(NC(=O)c2ccc([N+](=O)[O-])o2)cc1,active: 1.84 µM,–
O=C(NC1CCCC1)C(c1ccco1)N(C(=O)c1ccco1)c1ccc(F)cc1 (stereo not given),"inconclusive [inhibitor, single point]",–
O=C1COc2ccc(C(=O)COC(=O)c3cc(S(=O)(=O)N4CCOCC4)ccc3F)cc2N1,–,inactive: -4.86%
CCOC(=O)c1nn(-c2ccc(Cl)cc2C)ccc1=O,–,inactive: 8.88%
O=C(N/N=C/c1cc(Br)cc(Cl)c1O)c1ccc2c(c1)OCO2,active: 1.03 µM,–
O=C(C1CCC1)N1CCCc2cc(S(=O)(=O)N3CCN(c4cccc(Cl)c4)CC3)ccc21,"inconclusive [inhibitor, single point]",–
Cn1cccc1C(=O)N1CCC2(CCCN(c3ccncc3)C2)CC1,"inconclusive [inhibitor, single point]",–
Cc1cccc(/C=C/C(=O)c2ccc(NC3=NCCCS3)cc2)c1,active: 7.31 µM,–
CCOc1ccc(S(=O)(=O)Nc2ccc(C(=O)NNC(=O)c3ccncc3)cc2)cc1,–,inactive: -2.12%
Cc1ccc(NC(=S)N(CCCN(C)C)Cc2cc3cc4c(cc3[nH]c2=O)OCO4)c(C)c1,–,inactive: -5.79%
CCOc1ccc(-n2ccnc2SCC(=O)Nc2cc(C)ccc2C)cc1,"inconclusive [inhibitor, partial curve, poor fit]",–
CCOCc1nnc(NC(=O)c2cc(OC)c(OC)c(OC)c2)s1,–,inactive: 8.47%
CC(=O)Nc1ccc(NC(=O)CS(=O)(=O)c2cn(CC(=O)N3CCCCC3)c3ccccc23)cc1,–,inactive: -5.42%
O=[N+]([O-])c1cc(Cl)cc(/C=N/NC(=S)Nc2cc(S(=O)(=O)N3CCOCC3)ccc2Cl)c1O,"inconclusive [inhibitor, single point]",–
Cc1ccc(S(=O)(=O)N2C[C@H]3C(=O)C[C@@H](c4ccc(Cl)cc4)N(S(=O)(=O)c4ccccc4C)[C@H]3C[C@H]2c2cccc(Cl)c2)cc1,"inconclusive [inhibitor, single point]",–
C[C@H](CO)N1C[C@H](C)[C@H](CN(C)S(=O)(=O)c2cccs2)OCc2cnnn2CCCC1=O,–,inactive: 14.2%
CC(Oc1cccc(Cl)c1)C(=O)Nc1nc(-c2ccccn2)cs1 (stereo not given),active: 5.17 µM,–
CCc1c(C)sc(NC(=S)N2CCN(CC)CC2)c1C(=O)OC,"inconclusive [inhibitor, partial curve, poor fit]",–
Cc1ccc(CNC(C)(C)CO)cc1,"inconclusive [inhibitor, full curve, poor fit]",–
O=C(NC1CCCCCC1)C(=O)NC1CC1,–,inactive: 0.288%
